In PMC4336329 (PLoS ONE, 2015):
Hit rate of the full screen: of about 310,000 compounds, about 2,200 (0.71%) showed an effect of 50% or more. Effects have a minus sign here. This is one part of the list.

These compounds were tested against human ether-à-go-go-related gene (hERG) potassium channel (human, UniProt Q12809) (assay: primary screen, population patch clamp on CHO cells stably expressing hERG).
Chain of human ether-à-go-go-related gene (hERG) potassium channel (Q12809 whole entry, looked up): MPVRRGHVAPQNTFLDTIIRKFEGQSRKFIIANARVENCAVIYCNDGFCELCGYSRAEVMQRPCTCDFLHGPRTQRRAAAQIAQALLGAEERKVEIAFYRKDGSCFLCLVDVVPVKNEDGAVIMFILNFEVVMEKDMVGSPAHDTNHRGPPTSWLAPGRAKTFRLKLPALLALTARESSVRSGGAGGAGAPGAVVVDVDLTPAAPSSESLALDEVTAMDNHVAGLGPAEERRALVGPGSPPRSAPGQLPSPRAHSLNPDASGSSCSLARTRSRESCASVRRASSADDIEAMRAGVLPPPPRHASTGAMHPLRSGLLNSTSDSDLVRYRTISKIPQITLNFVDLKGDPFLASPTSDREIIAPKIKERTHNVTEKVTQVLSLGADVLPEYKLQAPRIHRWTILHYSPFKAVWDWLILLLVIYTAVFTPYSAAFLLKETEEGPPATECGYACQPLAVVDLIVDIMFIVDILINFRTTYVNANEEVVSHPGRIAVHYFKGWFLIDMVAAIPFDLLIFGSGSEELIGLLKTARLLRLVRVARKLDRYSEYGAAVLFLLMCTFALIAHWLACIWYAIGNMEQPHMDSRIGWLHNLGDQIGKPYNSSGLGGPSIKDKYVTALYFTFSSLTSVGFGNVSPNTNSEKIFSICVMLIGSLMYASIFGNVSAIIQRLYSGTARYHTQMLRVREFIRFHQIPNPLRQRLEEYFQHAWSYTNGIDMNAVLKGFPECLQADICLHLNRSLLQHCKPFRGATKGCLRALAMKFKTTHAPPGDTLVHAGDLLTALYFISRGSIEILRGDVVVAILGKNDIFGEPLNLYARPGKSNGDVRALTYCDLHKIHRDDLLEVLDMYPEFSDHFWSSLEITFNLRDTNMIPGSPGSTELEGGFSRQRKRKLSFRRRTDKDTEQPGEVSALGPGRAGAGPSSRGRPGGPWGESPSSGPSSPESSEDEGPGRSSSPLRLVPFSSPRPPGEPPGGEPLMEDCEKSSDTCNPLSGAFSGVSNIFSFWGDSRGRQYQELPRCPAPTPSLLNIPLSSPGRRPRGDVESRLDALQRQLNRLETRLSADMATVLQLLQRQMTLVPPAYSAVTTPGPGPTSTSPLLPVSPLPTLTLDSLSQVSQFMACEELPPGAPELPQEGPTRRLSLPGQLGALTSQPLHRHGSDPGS

**Q.** Cc1cccc(NC(=S)N2CCC(C(=O)c3ccc(F)cc3)CC2)c1C was tested. Which “hERG current change (%, negative = inhibition) at 1uM” value did it give?
**A.** 12.2%

**Q.** With CCOC(=O)C1C(=O)N(C(=O)c2cncc(Br)c2)CC1c1ccccc1 (centres unmarked) as the compound, how does the “hERG current change (%, negative = inhibition) at 1uM” value read?
**A.** 8.46%

**Q.** For CN(NC(=O)c1ccc(Cl)cc1)c1nc(-c2ccccc2)nnc1C(F)(F)F, which “hERG current change (%, negative = inhibition) at 1uM” value is on record?
**A.** 9.79%

**Q.** Cc1c(C(=O)N2CCCCC2)oc2ccc(S(=O)(=O)N3CC(C)CC(C)C3)cc12 (centres unmarked) was tested. Which “hERG current change (%, negative = inhibition) at 1uM” value did it give?
**A.** 12.4%

**Q.** With COCCn1c(=S)[nH]c2cc(C(=O)N3CCc4ccccc4C3)ccc2c1=O as the compound, how does the “hERG current change (%, negative = inhibition) at 1uM” value read?
**A.** 11.9%

**Q.** For O=C(c1ccco1)N1CCN(C(=O)c2ccc(CS(=O)c3cccc(Cl)c3)o2)CC1 (centres unmarked), which “hERG current change (%, negative = inhibition) at 1uM” value is on record?
**A.** 8.79%

**Q.** Which “hERG current change (%, negative = inhibition) at 1uM” value does the source give for CCCc1nc2oc3c(NCCN(C)C)ncnc3c2c2c1CCCC2 here?
**A.** 3.67%

**Q.** How did the “hERG current change (%, negative = inhibition) at 1uM” value turn out when Cc1ccc(Oc2ccc(C=O)cn2)cc1 was run?
**A.** 3.41%

**Q.** With COc1cccc(CN2C(=O)Nc3ccccc3C(=O)N2C(C)(C)C)c1 as the compound, how does the “hERG current change (%, negative = inhibition) at 1uM” value read?
**A.** 12.3%

**Q.** CN1CCN(C(=O)N(c2ccccc2)c2ccccc2)CC1.Cl was tested. Which “hERG current change (%, negative = inhibition) at 1uM” value did it give?
**A.** 13.5%

**Q.** With Cc1cc(=O)n2[nH]c(N)c(N=Nc3ccccc3F)c2n1 as the compound, how does the “hERG current change (%, negative = inhibition) at 1uM” value read?
**A.** 8.75%

**Q.** With Cc1nc2ccc(S(=O)(=O)NC(C(=O)Nc3nccs3)C(C)C)cc2s1 (centres unmarked) as the compound, how does the “hERG current change (%, negative = inhibition) at 1uM” value read?
**A.** 3.93%

**Q.** C[N+]1(C)[C@@H]2CC[C@H]1CC(OC(=O)[C@@H](CO)c1ccccc1)C2.[I-] (some centres unmarked) was tested. Which “hERG current change (%, negative = inhibition) at 1uM” value did it give?
**A.** 14%

**Q.** CC1CCc2c(sc3nc(C4CC4)nc(N4CCN(C(=O)c5ccco5)CC4)c23)C1 (centres unmarked) was tested. Which “hERG current change (%, negative = inhibition) at 1uM” value did it give?
**A.** 7.31%

**Q.** For COc1ccccc1NS(=O)(=O)c1cc(NC(=O)c2cccs2)ccc1N1CCCCC1, which “hERG current change (%, negative = inhibition) at 1uM” value is on record?
**A.** 12.6%

**Q.** Which “hERG current change (%, negative = inhibition) at 1uM” value does the source give for CC(C)(C)C1CCC(=O)N(CCOc2ccccc2)CC1 (centres unmarked) here?
**A.** 6.17%

**Q.** Which “hERG current change (%, negative = inhibition) at 1uM” value does the source give for CC(NC(=O)Oc1ccccc1)C(c1cccs1)N1CCOCC1 (centres unmarked) here?
**A.** -0.0387%

**Q.** Which “hERG current change (%, negative = inhibition) at 1uM” value does the source give for Cc1ccc(NC(=O)CNc2cccc(C)c2C)c(C)c1 here?
**A.** 11.9%

**Q.** For NC(=O)C1(N2CCCCC2)CCN(CC(=O)Nc2ccccc2-c2ccccc2)CC1, which “hERG current change (%, negative = inhibition) at 1uM” value is on record?
**A.** 15.5%

**Q.** How did the “hERG current change (%, negative = inhibition) at 1uM” value turn out when Cc1ccc2oc(=O)c3cc(C(=O)NCCN4CCc5ccccc5C4)sc3c2c1 was run?
**A.** -0.641%

**Q.** Which “hERG current change (%, negative = inhibition) at 1uM” value does the source give for COc1cccc(CNc2ccc3[nH]c(=O)[nH]c3c2)c1OCc1ccc(F)cc1 here?
**A.** 11.1%

**Q.** How did the “hERG current change (%, negative = inhibition) at 1uM” value turn out when N#CCCN(CCC#N)c1nncs1 was run?
**A.** -3.95%

**Q.** Which “hERG current change (%, negative = inhibition) at 1uM” value does the source give for C[N+](C)(C)CCCCCCC(=O)/C=N/O.[I-] here?
**A.** 12.2%

**Q.** Which “hERG current change (%, negative = inhibition) at 1uM” value does the source give for CCOc1ccc(CCNC(=O)c2cccs2)cc1OCC here?
**A.** 13.7%

**Q.** How did the “hERG current change (%, negative = inhibition) at 1uM” value turn out when COC(=O)C1=C(c2ccc(F)cc2OCc2ccccc2)C[C@@H]2CC[C@H]1N2C(=O)NCC1CC1 was run?
**A.** 2.35%

**Q.** How did the “hERG current change (%, negative = inhibition) at 1uM” value turn out when Cc1onc(-c2c(Cl)cccc2Cl)c1COC(=O)c1ccc(Cl)cc1[N+](=O)[O-] was run?
**A.** 17.7%

**Q.** For CC(C)c1ccc(NC(=O)C2CC(=O)N=C(N)S2)cc1 (centres unmarked), which “hERG current change (%, negative = inhibition) at 1uM” value is on record?
**A.** 3.33%

**Q.** For CCCn1nc2cc(C(=O)NC3CCCc4ccccc43)ccc2c1OCC (centres unmarked), which “hERG current change (%, negative = inhibition) at 1uM” value is on record?
**A.** 17%

**Q.** With Cc1ccc(-c2nnc(SC(C)C(=O)NCC3CCCO3)nc2-c2ccc(C)cc2)cc1 (centres unmarked) as the compound, how does the “hERG current change (%, negative = inhibition) at 1uM” value read?
**A.** 13.7%

**Q.** For COc1ccc(N2CCN(C(=O)CSc3ncnc4c3cnn4-c3ccccc3C)CC2)cc1, which “hERG current change (%, negative = inhibition) at 1uM” value is on record?
**A.** 9.02%

**Q.** Which “hERG current change (%, negative = inhibition) at 1uM” value does the source give for CC(NC(=O)Cc1ccccc1F)c1ccc(F)cc1 (centres unmarked) here?
**A.** 13.6%

**Q.** With CCCc1nc2c(nnn2Cc2ccccc2F)c(=O)[nH]1 as the compound, how does the “hERG current change (%, negative = inhibition) at 1uM” value read?
**A.** 8.3%

**Q.** CNC(=O)c1cc2cccc(OC)c2oc1=O was tested. Which “hERG current change (%, negative = inhibition) at 1uM” value did it give?
**A.** 8.51%

**Q.** With COc1ccccc1N(C(=O)c1ccco1)C(C(=O)NC1CCCC1)c1cccs1 (centres unmarked) as the compound, how does the “hERG current change (%, negative = inhibition) at 1uM” value read?
**A.** 2.48%

**Q.** For Cc1cc2oc(C(=O)NCCc3ccc(S(N)(=O)=O)cc3)c(C)c2cc1C, which “hERG current change (%, negative = inhibition) at 1uM” value is on record?
**A.** 17.3%

**Q.** Which “hERG current change (%, negative = inhibition) at 1uM” value does the source give for Cc1nc(NC(=S)Nc2ccccc2)sc1C here?
**A.** 8.68%

**Q.** Which “hERG current change (%, negative = inhibition) at 1uM” value does the source give for N#C/C(=C\c1ccc(N2CCOCC2)o1)C(=O)Nc1ccc(O)cc1 here?
**A.** 0.297%

**Q.** Which “hERG current change (%, negative = inhibition) at 1uM” value does the source give for CCOc1ccc(NS(=O)(=O)c2ccc(C(=O)NCC(C)(C)N3CCOCC3)cc2)cc1 here?
**A.** -3.59%

**Q.** How did the “hERG current change (%, negative = inhibition) at 1uM” value turn out when CC(C)CN1CCC(=O)N(CCSc2ccc(Br)cc2)CC1 was run?
**A.** -21.6%

**Q.** Which “hERG current change (%, negative = inhibition) at 1uM” value does the source give for Cc1ccc(C)c(C(=O)COC(=O)CNS(=O)(=O)c2ccccc2)c1 here?
**A.** 17%

**Q.** How did the “hERG current change (%, negative = inhibition) at 1uM” value turn out when COc1ccccc1CN(CC(=O)NCc1ccco1)C(=O)CNS(=O)(=O)c1ccc(C)cc1 was run?
**A.** 0.647%

**Q.** For CN(CCc1ccccc1)Cc1c[nH]c2ccccc12.O=C(O)C(=O)O, which “hERG current change (%, negative = inhibition) at 1uM” value is on record?
**A.** -22.9%

**Q.** For COc1ccccc1OCCNC(=O)c1c(-c2ccccc2Cl)noc1C, which “hERG current change (%, negative = inhibition) at 1uM” value is on record?
**A.** 9.26%

**Q.** How did the “hERG current change (%, negative = inhibition) at 1uM” value turn out when CCCNC(=O)N1CCC(n2nccc2NC(=O)CCOc2ccccc2)CC1 was run?
**A.** 12.9%

**Q.** O=C(NCCC1=CCCCC1)C1CC(=O)N(C2CCCCCC2)C1 (centres unmarked) was tested. Which “hERG current change (%, negative = inhibition) at 1uM” value did it give?
**A.** 12.1%

**Q.** With CCOCCCNC(=O)CCCn1nc(C)n2c(cc3sccc32)c1=O as the compound, how does the “hERG current change (%, negative = inhibition) at 1uM” value read?
**A.** -5.71%

**Q.** For CC(C)(C)N1C(=O)c2ccc(C(=O)Nc3ccc(O)cc3)cc2C1=O, which “hERG current change (%, negative = inhibition) at 1uM” value is on record?
**A.** 8.41%

**Q.** Which “hERG current change (%, negative = inhibition) at 1uM” value does the source give for O=C(CN(Cc1ccccc1)S(=O)(=O)c1ccc2c(c1)OCCO2)Nc1ccc2c(c1)OCCO2 here?
**A.** 1.27%

**Q.** How did the “hERG current change (%, negative = inhibition) at 1uM” value turn out when COc1ccc([C@@H]2[C@@H]3C(=O)N(C(C)(C)C)C(=O)[C@@H]3[C@]3(C)C(=O)N(c4ccc(C)cc4)C(=O)N23)cc1 was run?
**A.** -4.96%

**Q.** With O=C(COC(=O)/C=C/c1cccs1)Nc1ccc2ccccc2c1 as the compound, how does the “hERG current change (%, negative = inhibition) at 1uM” value read?
**A.** 0.199%

**Q.** How did the “hERG current change (%, negative = inhibition) at 1uM” value turn out when CC1(C)CC(=O)C/C(=N\NC(=O)c2cccs2)C1 was run?
**A.** 11.9%

**Q.** With CC(=O)Nc1cccc(NC(=O)Cc2cccs2)c1 as the compound, how does the “hERG current change (%, negative = inhibition) at 1uM” value read?
**A.** 11.5%

**Q.** For Cc1cccc(CCNC(=O)C2CCN(S(=O)(=O)c3cccc4nsnc34)CC2)c1, which “hERG current change (%, negative = inhibition) at 1uM” value is on record?
**A.** 7.1%

**Q.** CC(C)(C)c1ccc(Cn2cnc(-c3ccc([N+](=O)[O-])cc3)c2)cc1 was tested. Which “hERG current change (%, negative = inhibition) at 1uM” value did it give?
**A.** 3.3%

**Q.** With O=C(CCc1c[nH]c2ccccc12)OCc1ccc(Br)cc1 as the compound, how does the “hERG current change (%, negative = inhibition) at 1uM” value read?
**A.** 16%

**Q.** For COc1ccc(N(CC(=O)Nc2ccc3c(c2)OCO3)S(=O)(=O)c2ccc(C)cc2)cc1OC, which “hERG current change (%, negative = inhibition) at 1uM” value is on record?
**A.** 10.7%
